The RNAGym collection of RNA variant scans (doi:10.1073/pnas.2313332121)
This sample is rich in variants without activity.

B1: TPR 5TU (parent)
chain: GGAUCUUCUCGAUCUAACAAAAAAGACAAAUCUGCCACAAAGCUUGAGAGCAUCUUCGGAUGCAGAGGCGGCAGCCUUCGGUGGCGCGAUAGCGCCAACGUUCUCAACUAUGACACGCAAAACGCGUGCUCCGUUGAAUGGAGUUUAUCAUG

Variants of: B1
Experiment: polymerase ribozyme fitness, log enrichment relative to wild type (log ratio); higher = more active; in vitro selection for triplet polymerase activity
Procedure, shortened: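 Each subunit of a heterodimeric triplet polymerase ribozyme was represented by a PCR-built, transcribed mutant library that underwent triplicate single-round in vitro selection with frozen incubation at −7 °C. Extended constructs were recovered by gel excision, streptavidin-bead capture and RT-PCR, and Illumina sequencing of input and output libraries kept genotypes with ≥10 input reads and ≥1 read per output. Fitness is the logarithm of genotype enrichment relative to wild-type enrichment, from inverse-variance-weighted replicate averages, with a logarithm base of 2.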

Row | Variant | polymerase ribozyme fitness (log ratio)
1 | GGAUCUUCUCGAUCUAACAAAAAAGACAAAUCUGCCACAAAGCUUGAGAGCAUCUUCGGAUGCAGAGGCGGCAGCCUUCGGUGGCGCGAUAGAGCCUACGUUCUCAACUAUGACACGCAAAACGCGUACUCCGUUGAAUGGAGUUUAUCAUG | ≤ -4.2
2 | GGAUCUUCUCGAUCUAACAAAAAAGACAAAUCUGCCACAAAGCUUGAGAGCAUCUUCGGAUGCAGAGGCGGCAGCCUUCGGUGGCGCGAUAGUUCCAACGUUCUCAACUAUGACACGCAAAACGCGUGCUCCGUUGAAUGGAGUUUAUCAUG | -1.43
3 | GGAUCUUCUCGAUCUAACAAAAAAGACAAAUCUGCCACAAAGCUUGAGAGCAUCUUCGGAUGCAGAGGCGGCAGCCUUCGGUGGCGCGAUAGAGCCAACGUUCUCAACUGUGACACGCAAAACGCGUGCUCCGUUGAAUGGAGUUUAUCAUG | ≤ -4.2
4 | GGAUCUUCUCGAUCUAACAAAAAAGACAAAUCUGCCACAAAGCUUGAGAGCAUCUUCGGAUGCAGAGGCGGCAGCCUUCGGUGGCGCGAUAGAGCCAACGUUCUCAACUAUGACACGCAAAACCCGCGCUCCCUAGAAUGGAGUUUAGCAUG | ≤ -4.2
5 | GGAUCUUCUCGAUCUAACAAAAAAGACAAAUCUGCCACAAAGCUUGAGAGCAUCUUCGGAUGCAGAGGCGGCAGCCUUCGGUGGCGCGAUAGGGCCAACGUUCUCAACUAUGACACGCAAAACGCGUGCUCCGUUGAAUCGAUUUUAUCAUU | ≤ -4.2
6 | GGAUCUUCUCGAUCUAACAAAAAAGACAAAUCUGCCACAAAGCUUGAGAGCAUCUUCGGAUGCAGAGGCGGCAGCCUUCGGUGGCGCGAUAUCGCCAACGUUCUCAACUAUGACACGCAAAACGCGUGCUCCGUUGAAUGGAGUAUAUCAUG | 0.602
7 | GGAUCUUCUCGAUCUAACAAAAAAGACAAAUCUGCCACAAAGCUUGAGAGCAUCUUCGGAUGCAGAGGCGGCAGCCUUCGGUGGCGCGAUAUCGCCAACGUUCUCAACUAUCACACGCAAAACGCGUGCUCCGUUGAAUGGAGUUUAUCAUG | -2.95
8 | GGAUCUUCUCGAUCUAACAAAAAAGACAAAUCUGCCACAAAGCUUGAGAGCAUCUUCGGAUGCAGAGGCGGCAGCCUUCGGUGGCGCGAUAGGGCCAACGUUCUCAACUAUGACACGCAAAACGCGUGCUCCGUUGAAUGGAGUUUAUCAAG | ≤ -4.2
9 | GGAUCUUCUCGAUCUAACAAAAAAGACAAAUCUGCCACAAAGCUUGAGAGCAUCUUCGGAUGCAGAGGCGGCAGCCUUCGGUGGCGCGAUAGUGCCCACGUUCUCAACUAUGACACGCAAAACGCGUGCUCCGUUGAAUGGAGUUUAUCAUG | -0.557
10 | GGAUCUUCUCGAUCUAACAAAAAAGACAAAUCUGCCACAAAGCUUGAGAGCAUCUUCGGAUGCAGAGGCGGCAGCCUUCGGUGGCGCGAUAGAGCCAACGGUCUCAACUAUGACACGCAAAACGCGUGCUCCGUUGAACGCAGUUUAUCAUG | -3.88
11 | GGAUCUUCUCGAUCUAACAAAAAAGACAAAUCUGCCACAAAGCUUGAGAGCAUCUUCGGAUGCAGAGGCGGCAGCCUUCGGUGGCGCGAUAGUGCCAAUGUUCUCAACUAUGACACGCAAAACGCGUGCUCCGUUGAAUGGAGUUUAUCAUG | -2.8
12 | GGAUCUUCUCGAUCUAACAAAAAAGACAAAUCUGCCACAAAGCUUGAGAGCAUCUUCGGAUGCAGAGGCGGCAGCCUUCGGUGGCGCGAUAUCGCCAACGUUCUCAACUAUGACACGCAAAAAGCGUGCUCCGUUGAAUGGAGUUUAUCAUG | -0.758
13 | GGAUCUUCUCGAUCUAACAAAAAAGACAAAUCUGCCACAAAGCUUGAGAGCAUCUUCGGAUGCAGAGGCGGCAGCCUUCGGUGGCGCGAUAGAGCCAACGUUCUCAACUAUGACACGCAAAACGCGAGCUCCUUUGAAUUGAGUUUAUCAUG | ≤ -4.2
14 | GGAUCUUCUCGAUCUAACAAAAAAGACAAAUCUGCCACAAAGCUUGAGAGCAUCUUCGGAUGCAGAGGCGGCAGCCUUCGGUGGCGCGAUAGGGCCAACGUUCUCAACUAUGACACGCAAAACGCGUGCUGCGUUGAAGGGAGUUUAUCAUG | ≤ -4.2
15 | GGAUCUUCUCGAUCUAACAAAAAAGACAAAUCUGCCACAAAGCUUGAGAGCAUCUUCGGAUGCAGAGGCGGCAGCCUUCGGUGGCGCGAUAGAGCCAACGUUCUCAACUAUGACACGCAAAACGCGUGCUCCGCUGAAUGGAGUUUAUCAUG | -1.59
16 | GGAUCUUCUCGAUCUAACAAAAAAGACAAAUCUGCCACAAAGCUUGAGAGCAUCUUCGGAUGCAGAGGCGGCAGCCUUCGGUGGCGCGAUAGAGCUAACGUUCUCAACUAUGACACGCAAAACGCGUGCUCCGUUGAAUGGAGUUUAUCAUG | -3.3
17 | GGAUCUUCUCGAUCUAACAAAAAAGACAAAUCUGCCACAAAGCUUGAGAGCAUCUUCGGAUGCAGAGGCGGCAGCCUUCGGUGGCGCGAUAGUGCCAACGUUCUCAACUAUGACACGCAAAACGCGUGCUCUGUUGAAUGGAGUUUAUGAUG | ≤ -4.2
18 | GGAUCUUCUCGAUCUAACAAAAAAGACAAAUCUGCCACAAAGCUUGAGAGCAUCUUCGGAUGCAGAGGCGGCAGCCUUCGGUGGCGCGAUAGAGCCAAGGUUCUCAACUAUGACACGCAAAAUGCGUGCUCCGUUCAAUGGAGUUUAUCAUG | ≤ -4.2
19 | GGAUCUUCUCGAUCUAACAAAAAAGACAAAUCUGCCACAAAGCUUGAGAGCAUCUUCGGAUGCAGAGGCGGCAGCCUUCGGUGGCGCGAUAGAGCCAACGUUCUCAACUAUGACACGCAAAACGUGUGCUCCCUUGAAUGGAGUUUAUGAUG | ≤ -4.2

Row | Variant | polymerase ribozyme fitness (log ratio)
20 | GGAUCUUCUCGAUCUAACAAAAAAGACAAAUCUGCCACAAAGCUUGAGAGCAUCUUCGGAUGCAGAGGCGGCAGCCUUCGGUGGCGCGAUAUCGCUUACGUUCUCAACUAUGACUCGCAAUACGCGUGCUCCGUUGAAUGGAGUUUAUCAUG | -2.82
21 | GGAUCUUCUCGAUCUAACAAAAAAGACAAAUCUGCCACAAAGCUUGAGAGCAUCUUCGGAUGCAGAGGCGGCAGCCUUCGGUGGCGCGAUAUCGCCAACGUUCUCAAUUAUGACACGCAAAACGGGUGCUCCGUUGAAUCGAGUUUAUCAUG | ≤ -4.2
22 | GGAUCUUCUCGAUCUAACAAAAAAGACAAAUCUGCCACAAAGCUUGAGAGCAUCUUCGGAUGCAGAGGCGGCAGCCUUCGGUGGCGCGAUAGUGCCAACGUUCUCAACUAUGACACGCACAACGCGUGCUCCAUUGAAUGGAGUUUAUCAUG | ≤ -4.2
23 | GGAUCUUCUCGAUCUAACAAAAAAGACAAAUCUGCCACAAAGCUUGAGAGCAUCUUCGGAUGCAGAGGCGGCAGCCUUCGGUGGCGCGAUAGUGCCAACGUUCUCAACUAUGACACCCAAAACGAGUGCUCCGUUGAAUGGAGUUUAUCAUG | -0.271
24 | GGAUCUUCUCGAUCUAACAAAAAAGACAAAUCUGCCACAAAGCUUGAGAGCAUCUUCGGAUGCAGAGGCGGCAGCCUUCGGUGGCGCGAUAGUGCCAACGUUCUCAACUAUGACACGCAAAACGCGUGCUCCGUUGAAUGGAGUUUAUUAUG | -1.57
25 | GGAUCUUCUCGAUCUAACAAAAAAGACAAAUCUGCCACAAAGCUUGAGAGCAUCUUCGGAUGCAGAGGCGGCAGCCUUCGGUGGCGCGAUAGUGUCAACGUACUCGACUAUGACACGCAAAACGCGUGCUCCGUUGAAUGGAGUUUAUCAUG | -2.87
26 | GGAUCUUCUCGAUCUAACAAAAAAGACAAAUCUGCCACAAAGCUUGAGAGCAUCUUCGGAUGCAGAGGCGGCAGCCUUCGGUGGCGCGAUAGAGCCAACGUUCGCAACUAUGACACGCAAAACGCGUGCUCCGUUGAAUGGAGUUUAUCAUG | -2.89
27 | GGAUCUUCUCGAUCUAACAAAAAAGACAAAUCUGCCACAAAGCUUGAGAGCAUCUUCGGAUGCAGAGGCGGCAGCCUUCGGUGGCGCGAUAGUGUCAACGUUCUCAACUAUGACACGCAAAACGCGUGCUCCGUUGAAUGGAGUUUAUAAUG | ≤ -4.2
28 | GGAUCUUCUCGAUCUAACAAAAAAGACAAAUCUGCCACAAAGCUUGAGAGCAUCUUCGGAUGCAGAGGCGGCAGCCUUCGGUGGCGCGAUAGAGCCAACGUUCUCAACUAUGACAUGCAAAACGCGUGCUCCGUUGAAUGGAGUUUAUCAUG | -1.88
29 | GGAUCUUCUCGAUCUAACAAAAAAGACAAAUCUGCCACAAAGCUUGAGAGCAUCUUCGGAUGCAGAGGCGGCAGCCUUCGGUGGCGCGAUAGGGCCAACGUUCUCAACUAUGACGCGCAAAACGCGUGCUCCGUUGAAUGAAGUUUACCGUG | ≤ -4.2
30 | GGAUCUUCUCGAUCUAACAAAAAAGACAAAUCUGCCACAAAGCUUGAGAGCAUCUUCGGAUGCAGAGGCGGCAGCCUUCGGUGGCGCGAUAUCGCCAACGUUCUCAACUAUGACACGCAAAACCCGUGCUCCGUUGAAAGGAGUUUAUCAUG | ≤ -4.2
31 | GGAUCUUCUCGAUCUAACAAAAAAGACAAAUCUGCCACAAAGCUUGAGAGCAUCUUCGGAUGCAGAGGCGGCAGCCUUCGGUGGCGCGAUAGAGCCAACGUUCUCAACUAUGACACGCAAAACGCGUGCUCCGUUGAAUGAGGUUUAUCAUG | ≤ -4.2
32 | GGAUCUUCUCGAUCUAACAAAAAAGACAAAUCUGCCACAAAGCUUGAGAGCAUCUUCGGAUGCAGAGGCGGCAGCCUUCGGUGGCGCGAUAGAGCCAACGUUCUCAACUAUGACACGCAAAACGCGUGCUCCGUUGAAUGGCGUUUAUCAUG | -1.78
33 | GGAUCUUCUCGAUCUAACAAAAAAGACAAAUCUGCCACAAAGCUUGAGAGCAUCUUCGGAUGCAGAGGCGGCAGCCUUCGGUGGCGCGAUAGAGCCAACGUUCUCAACUAUGACACGCAAAACGCGUGCUCCGUUGAAUAGAGUUUAUCAUG | -4.11
34 | GGAUCUUCUCGAUCUAACAAAAAAGACAAAUCUGCCACAAAGCUUGAGAGCAUCUUCGGAUGCAGAGGCGGCAGCCUUCGGUGGCGCGAUAGUGCCAACGUUCUCAACUAUGACUCGCAGAACGCGUGCUCCGUUGAAUGGAGUUUAUCAUG | -2.4
35 | GGAUCUUCUCGAUCUAACAAAAAAGACAAAUCUGCCACAAAGCUUGAGAGCAUCUUCGGAUGCAGAGGCGGCAGCCUUCGGUGGCGCGAUAGUGCCUACGUUCUCAACUAUGACAAGCAAAACGCGUGCUCCAUUGAAUGGAGUUUAUCAUG | ≤ -4.2
36 | GGAUCUUCUCGAUCUAACAAAAAAGACAAAUCUGCCACAAAGCUUGAGAGCAUCUUCGGAUGCAGAGGCGGCAGCCUUCGGUGGCGCGAUAGGGCCAACGUUCUCAACUAUGACACGCAAAACGCGUGCUCCGUUGAAUGGCGUUUAUCAUG | -4.02
37 | GGAUCUUCUCGAUCUAACAAAAAAGACAAAUCUGCCACAAAGCUUGAGAGCAUCUUCGGAUGCAGAGGCGGCAGCCUUCGGUGGCGCGAUAGAGCCAACCUUCGCAACUAUGACACGCAAAACGCGUGCUCCGUUGAAUGGAGUUUAUCAUG | ≤ -4.2
38 | GGAUCUUCUCGAUCUAACAAAAAAGACAAAUCUGCCACAAAGCUUGAGAGCAUCUUCGGAUGCAGAGGCGGCAGCCUUCGGUGGCGCGAUAGAGCCAACGUUCUCAUCUGUGAUACGCAAAACGCGGGCUCCGUUGAAUGGAGUUUAUCAUG | ≤ -4.2
